These are yes or no findings as the source states them, for the method shown. For some assays here: Binding seen in cells or lysates may run through a third protein. Some results given as binding are weak or reduced against the parent protein; the word gives no strength. For some assays here: Where a sequence is shown, tags or fusion partners need not be part of it.

By UniProt entry, the sequences of proteins in these tests, tags left out.
UniProt P29466: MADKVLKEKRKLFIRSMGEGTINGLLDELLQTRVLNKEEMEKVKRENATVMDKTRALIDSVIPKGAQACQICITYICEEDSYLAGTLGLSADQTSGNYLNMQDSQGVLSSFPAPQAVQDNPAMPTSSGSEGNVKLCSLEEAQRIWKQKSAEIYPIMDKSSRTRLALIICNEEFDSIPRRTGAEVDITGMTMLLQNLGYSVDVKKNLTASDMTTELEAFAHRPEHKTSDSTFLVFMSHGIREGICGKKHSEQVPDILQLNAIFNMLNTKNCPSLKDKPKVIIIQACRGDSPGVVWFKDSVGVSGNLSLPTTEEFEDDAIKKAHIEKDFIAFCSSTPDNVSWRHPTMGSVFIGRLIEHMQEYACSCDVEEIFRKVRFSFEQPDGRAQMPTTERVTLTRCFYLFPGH

Test [1] addresses T1, FLAG-tagged human caspase-4, wild type (human) (UniProt P49662).
T1 sequence: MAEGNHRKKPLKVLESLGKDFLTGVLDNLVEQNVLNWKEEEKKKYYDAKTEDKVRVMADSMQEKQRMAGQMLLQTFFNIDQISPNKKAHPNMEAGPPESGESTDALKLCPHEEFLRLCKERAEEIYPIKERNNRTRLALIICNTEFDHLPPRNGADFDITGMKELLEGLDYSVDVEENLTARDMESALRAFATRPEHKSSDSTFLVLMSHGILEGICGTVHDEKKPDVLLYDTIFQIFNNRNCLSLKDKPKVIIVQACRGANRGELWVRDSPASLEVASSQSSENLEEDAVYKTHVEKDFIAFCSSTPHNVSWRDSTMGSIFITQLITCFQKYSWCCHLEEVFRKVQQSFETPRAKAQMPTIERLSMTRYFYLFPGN
In words: co-IP; 293T cells co-transfected with FLAG-tagged caspase and GPx8 vectors; lysis in 20 mM Tris-Cl pH 8, 1% Triton X-100, 150 mM NaCl; immunoprecipitated with anti-FLAG Ab (also with anti-GPx8 Ab), 4°C 3 h; eluted with SDS buffer, disulfide-linked complexes seen under non-reducing conditions (- DTT); in one panel cells treated with H2O2 (200 μM).

Test [2] deals with FLAG-tagged human caspase-1 (human) (UniProt P29466). The test is described as above.
Test [3] has as its target T2, FLAG-tagged human caspase-4 C118S mutant (human) (UniProt P49662).
T2 sequence: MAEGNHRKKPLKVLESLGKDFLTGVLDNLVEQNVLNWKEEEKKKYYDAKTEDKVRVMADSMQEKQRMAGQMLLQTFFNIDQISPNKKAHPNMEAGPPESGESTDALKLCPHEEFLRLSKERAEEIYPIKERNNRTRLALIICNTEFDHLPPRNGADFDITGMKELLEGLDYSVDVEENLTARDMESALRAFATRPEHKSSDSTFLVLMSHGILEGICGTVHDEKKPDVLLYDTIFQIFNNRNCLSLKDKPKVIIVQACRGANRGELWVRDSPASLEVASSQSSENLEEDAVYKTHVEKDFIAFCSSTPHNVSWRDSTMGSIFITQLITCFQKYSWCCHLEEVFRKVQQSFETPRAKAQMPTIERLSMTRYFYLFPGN
The description is as above.

The target in test [4] is T3, FLAG-tagged human caspase-4 C329S mutant (human) (UniProt P49662).
T3 sequence: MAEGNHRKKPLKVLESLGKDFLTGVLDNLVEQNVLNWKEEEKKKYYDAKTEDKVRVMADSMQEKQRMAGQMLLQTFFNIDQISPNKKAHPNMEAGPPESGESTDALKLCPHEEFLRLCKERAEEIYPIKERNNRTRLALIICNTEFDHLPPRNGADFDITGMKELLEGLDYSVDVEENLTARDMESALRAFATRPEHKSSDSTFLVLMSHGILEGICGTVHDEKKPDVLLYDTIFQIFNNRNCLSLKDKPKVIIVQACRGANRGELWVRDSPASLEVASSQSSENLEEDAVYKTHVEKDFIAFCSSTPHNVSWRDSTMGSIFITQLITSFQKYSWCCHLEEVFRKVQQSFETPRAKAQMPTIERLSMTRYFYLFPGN
The description is as above.

Test [5] has as its target T4, FLAG-tagged mouse caspase-11 (mouse) (UniProt P70343).
T4 sequence: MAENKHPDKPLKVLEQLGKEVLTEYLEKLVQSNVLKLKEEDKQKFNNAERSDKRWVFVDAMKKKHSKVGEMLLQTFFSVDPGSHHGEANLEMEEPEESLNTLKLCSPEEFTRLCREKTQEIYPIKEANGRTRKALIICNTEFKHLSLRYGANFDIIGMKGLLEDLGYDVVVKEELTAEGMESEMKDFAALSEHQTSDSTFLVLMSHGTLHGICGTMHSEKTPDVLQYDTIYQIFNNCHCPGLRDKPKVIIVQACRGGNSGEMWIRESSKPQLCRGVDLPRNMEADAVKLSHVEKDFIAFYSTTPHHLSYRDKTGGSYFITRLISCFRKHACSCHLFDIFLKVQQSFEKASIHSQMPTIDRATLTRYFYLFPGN
The description is as above.

Test [6] has as its target T5, FLAG-tagged human caspase-4 (C258S) protease-deficient mutant (human) (UniProt P49662).
T5 sequence: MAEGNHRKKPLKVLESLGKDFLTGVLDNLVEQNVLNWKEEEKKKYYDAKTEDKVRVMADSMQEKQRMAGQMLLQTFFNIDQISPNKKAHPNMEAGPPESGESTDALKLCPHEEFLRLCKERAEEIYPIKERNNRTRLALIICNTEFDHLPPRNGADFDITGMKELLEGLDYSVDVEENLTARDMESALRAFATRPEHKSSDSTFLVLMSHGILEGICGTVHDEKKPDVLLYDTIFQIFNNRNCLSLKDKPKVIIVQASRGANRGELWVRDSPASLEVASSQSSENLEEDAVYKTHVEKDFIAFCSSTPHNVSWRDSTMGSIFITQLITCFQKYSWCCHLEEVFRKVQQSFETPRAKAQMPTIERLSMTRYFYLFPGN
The test is described as above.

The target in test [7] is T5, FLAG-tagged human caspase-4 (C258S) protease-deficient mutant (human). The test can be described thus: co-IP; as a1, immunoprecipitated complex eluted and analysed under reducing conditions (+ DTT).
Test [8] addresses T6, endogenous caspase-4 in THP-1 cells (human (endogenous in THP-1)) (UniProt P49662).
T6 sequence: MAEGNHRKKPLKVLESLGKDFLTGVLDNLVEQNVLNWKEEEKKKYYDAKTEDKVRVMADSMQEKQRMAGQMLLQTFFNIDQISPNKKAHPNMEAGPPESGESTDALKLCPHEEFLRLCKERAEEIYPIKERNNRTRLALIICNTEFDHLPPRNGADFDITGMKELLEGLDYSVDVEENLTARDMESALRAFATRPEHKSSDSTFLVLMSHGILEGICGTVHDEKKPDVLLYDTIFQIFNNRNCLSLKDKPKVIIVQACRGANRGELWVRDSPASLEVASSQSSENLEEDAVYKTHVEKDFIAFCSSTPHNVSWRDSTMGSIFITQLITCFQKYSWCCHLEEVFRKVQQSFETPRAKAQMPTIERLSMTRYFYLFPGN
The test can be described thus: proximity ligation; in situ PLA in THP-1 cells stably expressing GPx8-Myc, anti-Myc and anti-caspase-4 Abs; untreated or primed with LPS.

Test [9] concerns the target T5, FLAG-tagged human caspase-4 (C258S) protease-deficient mutant (human). The test can be described thus: in vitro complex formation assay (disulfide-linked high-molecular-weight complex on blot); E. coli purified GPx8 (pretreated with 1 or 5 mM H2O2, or 50 or 200 mM DTT) with FLAG-tagged caspase-4 (C258S) purified from 293T; both purified.

B1: glutathione peroxidase 8 (GPx8), wild type, expressed in 293T cells (protein, UniProt Q8TED1 1-209)
chain: MEPLAAYPLKCSGPRAKVFAVLLSIVLCTVTLFLLQLKFLKPKINSFYAFEVKDAKGRTVSLEKYKGKVSLVVNVASDCQLTDRNYLGLKELHKEFGPSHFSVLAFPCNQFGESEPRPSKEVESFARKNYGVTFPIFHKIKILGSEGEPAFRFLVDSSKKEPRWNFWKYLVNPEGQVVKFWKPEEPIEVIRPDIAALVRQVIIKKKEDL
With B1, the binding result in test [1] is “binds”; in test [2] it was “no binding”; in test [3], “binds”; in test [4] it was “binds”; in [5], “binds”; in [6] it was “binds”. Further, in test [7], the binding result is recorded as “no binding (condition: reducing conditions (+ DTT))”.

B2: Myc-tagged GPx8 stably expressed in THP-1 cells (protein, UniProt Q8TED1 1-209)
chain: MEPLAAYPLKCSGPRAKVFAVLLSIVLCTVTLFLLQLKFLKPKINSFYAFEVKDAKGRTVSLEKYKGKVSLVVNVASDCQLTDRNYLGLKELHKEFGPSHFSVLAFPCNQFGESEPRPSKEVESFARKNYGVTFPIFHKIKILGSEGEPAFRFLVDSSKKEPRWNFWKYLVNPEGQVVKFWKPEEPIEVIRPDIAALVRQVIIKKKEDL
Regarding B2, the binding result in [8] is listed as “binds”.

B3: recombinant GPx8 C79S mutant, N-terminally truncated (N' Δ1-43) (domain or fragment, UniProt Q8TED1 44-209)
chain: INSFYAFEVKDAKGRTVSLEKYKGKVSLVVNVASDSQLTDRNYLGLKELHKEFGPSHFSVLAFPCNQFGESEPRPSKEVESFARKNYGVTFPIFHKIKILGSEGEPAFRFLVDSSKKEPRWNFWKYLVNPEGQVVKFWKPEEPIEVIRPDIAALVRQVIIKKKEDL
As for B3, the binding result in [9] is “no binding”.

B4: recombinant GPx8 C2S2 mutant (C79S and C108S), N-terminally truncated (N' Δ1-43) (domain or fragment, UniProt Q8TED1 44-209)
chain: INSFYAFEVKDAKGRTVSLEKYKGKVSLVVNVASDSQLTDRNYLGLKELHKEFGPSHFSVLAFPSNQFGESEPRPSKEVESFARKNYGVTFPIFHKIKILGSEGEPAFRFLVDSSKKEPRWNFWKYLVNPEGQVVKFWKPEEPIEVIRPDIAALVRQVIIKKKEDL
As to B4, the binding result in [9] is listed as “no binding”.

B5: recombinant GPx8 C108S mutant, N-terminally truncated (N' Δ1-43) (domain or fragment, UniProt Q8TED1 44-209)
chain: INSFYAFEVKDAKGRTVSLEKYKGKVSLVVNVASDCQLTDRNYLGLKELHKEFGPSHFSVLAFPSNQFGESEPRPSKEVESFARKNYGVTFPIFHKIKILGSEGEPAFRFLVDSSKKEPRWNFWKYLVNPEGQVVKFWKPEEPIEVIRPDIAALVRQVIIKKKEDL
Consider B5, for which the binding entry in [9] was “no binding”.

These data come from PMC6949489.
